These results are taken from the supplement of paper PMC10126150.

Sequences with one replicate were seen in a single cluster, so their values are uncertain.

The subject of this data set is ATP. The data set is described as follows: switch fluorescence ratio, 500 uM ATP over buffer (Cy3 cluster intensity, sum of 5 cycles each) (fold (ratio)); higher = stronger signal-on switching upon ATP binding; sequences stand for … in TCGTCGGCAGCGTCAGATGTGTATAAGAGACAGTTTTTTTTTTTTTTTTTTTTTTTTT…TC. The note with it: aptamer strand: ATP DNA aptamer (quencher-CACCTGGGGGAGTATTGCGGAGGAAGG + anchor), 100 nM annealed; ATP concentration: 500 uM; one replicate. The procedure, abridged: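 Clusters with intensities outside 100-1000 RFU were excluded. The remaining Cy3-labelled switching-strand clusters on a modified Illumina MiSeq flow-cell had been annealed to 100 nM quencher-labelled ATP aptamer and imaged in selection buffer, then after 15 min with 500 uM ATP at 22 °C, for five cycles separated by NaOH stripping and re-annealing. The fluorescence ratio, averaged per switch-domain sequence, is each cluster's summed target-cycle Cy3 intensity over its summed buffer-cycle Cy3 intensity.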
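Note: ATP exposure 15 min at 22 °C before imaging.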

Regarding CTCTTCCAGG, the switch fluorescence ratio is 5.99.
Consider ACACAACTGA, for which the switch fluorescence ratio stood at 1.14.
In the case of GTCAAGGGGG it was 0.99; in that of ACCAGCCTAA, 1.08.
With GGCAGGAGGC, the switch fluorescence ratio came out at 1.
For the sequence GGGAGTACTA, the switch fluorescence ratio worked out at 1.
Consider ACGCAAGTT, for which the switch fluorescence ratio turned out to be 1.14.
For AAGACCGAGT, the switch fluorescence ratio came out at 0.987.
The result for ATTGGTCTTT reads 0.978; that for TGCCACGTAC, 2.22.
For the sequence TTGGGAGAA, the switch fluorescence ratio came to 1.01.
Regarding AATGGAAAAA, the switch fluorescence ratio stood at 0.999.
Regarding GACGCTTTGT, the switch fluorescence ratio was 1.09.
On to ATTTAGAGCG, for which the switch fluorescence ratio is 0.979.
Consider TACGGTTTTA, for which the switch fluorescence ratio was found to be 0.964.
For CTTTTACCCA, the switch fluorescence ratio is 1.04.
As for TGGTGTCTCA, the switch fluorescence ratio came out at 1.01.
The result for CCAGGTGTAC reads 1.11.
Regarding GGGGAAGTCG, the switch fluorescence ratio was found to be 1.09.
Consider CGGACGTGTA, for which the switch fluorescence ratio was found to be 1.07.
As for GGTTTAAATC, the switch fluorescence ratio is 0.992.
Turning to CGCTTATG, the switch fluorescence ratio turned out to be 1.1.
Take AGCAGATACA: the switch fluorescence ratio is 1.19.
The result for ATACTGCCCT reads 1.27.
On to AAAATTTTCT, for which the switch fluorescence ratio was determined as 1.03.
Turning to TATGAAAGTC, the switch fluorescence ratio came out at 0.963.
As to GTGGGCGCCA, the switch fluorescence ratio was found to be 1.03.
For the sequence TCGGTCTTGA, the switch fluorescence ratio is 0.969.
For the sequence CGAGAATGGG, the switch fluorescence ratio came out at 0.984.
In the case of CTCCTTTCTC it was 1.43; in that of CGTAAAAATC, 1.
As for GTTGCGAGAG, the switch fluorescence ratio worked out at 1.01.
On to TTAGTACTAG, for which the switch fluorescence ratio was 0.965.
The result for TTATAGTTGT reads 0.988; that for TATGAAAACC, 0.998.
For the sequence CCTCCCCCTC, the switch fluorescence ratio stood at 4.21.
Consider GTAATCGTAG, for which the switch fluorescence ratio was 0.927.
On to AATTCTCCTC, for which the switch fluorescence ratio worked out at 1.05.
Take CGACCGGGCC: the switch fluorescence ratio was 1.04.
Consider GTCAGAGCAC, for which the switch fluorescence ratio is 1.09.
In the case of AACATTAAGA it was 1.03; in that of CTAGTTGAGG, 0.999.
In the case of AAGGTGCACT it was 1.01; in that of GCTGCGCAGA, 1.15; in that of CCGGGGAGCG, 0.983.
CATTAATACG: the switch fluorescence ratio turned out to be 1.04.
For TGCAGGTACG, the switch fluorescence ratio was determined as 1.03.
As for AGGTAGACAG, the switch fluorescence ratio was 0.993.
For ATAAGTGGCG, the switch fluorescence ratio was 1.11.
The result for ACTTGAGAAG reads 0.987; that for CTCTATATAT, 1.03.
With TTCTGTTGTT, the switch fluorescence ratio worked out at 1.06.
The result for AACGAGGCTG reads 1.5; that for GGGGGGGC, 1.11.
The result for GCTCGTCAAA reads 0.996; that for CCACTACGGT, 1.08.
With ATAGTAAACT, the switch fluorescence ratio was found to be 1.02.
AAACAAGATC: the switch fluorescence ratio came out at 0.987.
For TAAGAAATAC, the switch fluorescence ratio came out at 2.68.
As to TATTCTTGAA, the switch fluorescence ratio stood at 0.939.
In the case of ACTTTGCCGA, the switch fluorescence ratio was 1.06.
For TCTTATAAAT, the switch fluorescence ratio worked out at 0.996.
For TGAAAAAGAA, the switch fluorescence ratio worked out at 0.967.
In the case of TGCGGAGCGG it was 1.05.
In the case of TCTCGGAGTT it was 1.03.
In the case of CGAAGAGTGG, the switch fluorescence ratio amounted to 1.04.
Consider AGTGTCATAT, for which the switch fluorescence ratio worked out at 1.02.
